These results are taken from patent publication US20210179693A1 (Xencor, published 2021).

The target in the test is T1, human FcRn (His-tagged alpha chain with beta 2 microglobulin) (human, UniProt P55899 fragment; P61769 fragment, limits assumed).
T1 construct: also called hFcRn; not shown: His tag
The test can be described thus: Biacore, human FcRn on chip, pH 6.0.

T1 sequence (P55899 24-297 limits assumed, chain 1 of 2): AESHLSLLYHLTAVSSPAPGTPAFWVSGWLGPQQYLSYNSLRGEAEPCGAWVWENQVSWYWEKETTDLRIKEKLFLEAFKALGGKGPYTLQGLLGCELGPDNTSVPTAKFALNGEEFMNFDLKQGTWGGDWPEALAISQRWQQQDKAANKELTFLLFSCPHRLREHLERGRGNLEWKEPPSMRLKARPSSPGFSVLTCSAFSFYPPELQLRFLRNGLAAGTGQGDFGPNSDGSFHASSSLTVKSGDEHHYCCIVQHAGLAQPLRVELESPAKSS
T1 sequence (P61769 21-119 limits assumed, chain 2 of 2, further chain): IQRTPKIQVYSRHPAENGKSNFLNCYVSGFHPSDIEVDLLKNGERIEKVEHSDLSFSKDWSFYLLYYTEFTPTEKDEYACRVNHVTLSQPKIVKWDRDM

B1: anti-VEGF IgG1 P257L (antibody)
heavy: EVQLVESGGGLVQPGGSLRLSCAASGYTFTNYGMNWVRQAPGKGLEWVGWINTYTGEPTYAADFKRRFTFSLDTSKSTAYLQMNSLRAEDTAVYYCAKYPHYYGSSHWYFDVWGQGTLVTVSSASTKGPSVFPLAPSSKSTSGGTAALGCLVKDYFPEPVTVSWNSGALTSGVHTFPAVLQSSGLYSLSSVVTVPSSSLGTQTYICNVNHKPSNTKVDKKV[human IgG1 Fc with P257L (EU numbers) omitted here]
light: DIQMTQSPSSLSASVGDRVTITCSASQDISNYLNWYQQKPGKAPKVLIYFTSSLHSGVPSRFSGSGSGTDFTLTISSLQPEDFATYYCQQYSTVPWTFGQGTKVEIKRTVAAPSVFIFPPSDEQLKSGTASVVCLLNNFYPREAKVQWKVDNALQSGNSQESVTEQDSKDSTYSLSSTLTLSKADYEKHKVYACEVTHQGLSSPVTKSFNRGEC
As to B1, the “fold FcRn binding relative to WT IgG1” value stood at 3.4 fold.

B2: anti-VEGF IgG1 P257N (antibody)
heavy: EVQLVESGGGLVQPGGSLRLSCAASGYTFTNYGMNWVRQAPGKGLEWVGWINTYTGEPTYAADFKRRFTFSLDTSKSTAYLQMNSLRAEDTAVYYCAKYPHYYGSSHWYFDVWGQGTLVTVSSASTKGPSVFPLAPSSKSTSGGTAALGCLVKDYFPEPVTVSWNSGALTSGVHTFPAVLQSSGLYSLSSVVTVPSSSLGTQTYICNVNHKPSNTKVDKKV[human IgG1 Fc with P257N (EU numbers) omitted here]
light: B1 light
B2: the “fold FcRn binding relative to WT IgG1” value is 3.5 fold.
